Experimental data: publication PMC12386666
Residue numbers refer to the chain shown, from its start. Names may count otherwise. These are yes or no findings as the source states them, for the method shown. In cells and extracts the contact can be indirect. Some results given as binding are weak or reduced against the parent protein; the word gives no strength. Where a sequence is shown, tags or fusion partners need not be part of it. Each block holds one molecule with its values, some of them ahead of it.

Sequences of proteins named here, by UniProt entry; tags and fusion partners are left off. Residues count along the entry.
UniProt Q9BXM7, residues 78-581: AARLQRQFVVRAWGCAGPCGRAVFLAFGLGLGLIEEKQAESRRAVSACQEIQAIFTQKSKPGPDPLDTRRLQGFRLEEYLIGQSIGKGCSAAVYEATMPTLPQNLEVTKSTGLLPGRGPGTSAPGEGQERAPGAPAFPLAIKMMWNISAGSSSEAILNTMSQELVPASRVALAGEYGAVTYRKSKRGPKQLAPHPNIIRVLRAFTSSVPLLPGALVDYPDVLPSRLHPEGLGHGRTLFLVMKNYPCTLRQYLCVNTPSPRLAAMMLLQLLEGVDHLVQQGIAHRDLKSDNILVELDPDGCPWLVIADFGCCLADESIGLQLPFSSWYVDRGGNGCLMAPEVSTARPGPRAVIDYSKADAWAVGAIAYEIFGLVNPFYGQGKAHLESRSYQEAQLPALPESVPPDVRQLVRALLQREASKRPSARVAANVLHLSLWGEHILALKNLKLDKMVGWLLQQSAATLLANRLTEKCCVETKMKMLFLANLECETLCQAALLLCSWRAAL

How the values were obtained:
[1] = target: T1, HA-synphilin-1 (wild-type) (UniProt Q9Y6H5); assay: co-IP; transfected HEK293 cells lysed; synphilin-1 immunoprecipitated with anti-HA, co-precipitated proteins detected with anti-myc; lysis buffer 50 mM Tris-HCl pH 7.4, 140 mM NaCl, 1% Triton X-100, 0.1% SDS; washes with 500 mM NaCl
T1 sequence: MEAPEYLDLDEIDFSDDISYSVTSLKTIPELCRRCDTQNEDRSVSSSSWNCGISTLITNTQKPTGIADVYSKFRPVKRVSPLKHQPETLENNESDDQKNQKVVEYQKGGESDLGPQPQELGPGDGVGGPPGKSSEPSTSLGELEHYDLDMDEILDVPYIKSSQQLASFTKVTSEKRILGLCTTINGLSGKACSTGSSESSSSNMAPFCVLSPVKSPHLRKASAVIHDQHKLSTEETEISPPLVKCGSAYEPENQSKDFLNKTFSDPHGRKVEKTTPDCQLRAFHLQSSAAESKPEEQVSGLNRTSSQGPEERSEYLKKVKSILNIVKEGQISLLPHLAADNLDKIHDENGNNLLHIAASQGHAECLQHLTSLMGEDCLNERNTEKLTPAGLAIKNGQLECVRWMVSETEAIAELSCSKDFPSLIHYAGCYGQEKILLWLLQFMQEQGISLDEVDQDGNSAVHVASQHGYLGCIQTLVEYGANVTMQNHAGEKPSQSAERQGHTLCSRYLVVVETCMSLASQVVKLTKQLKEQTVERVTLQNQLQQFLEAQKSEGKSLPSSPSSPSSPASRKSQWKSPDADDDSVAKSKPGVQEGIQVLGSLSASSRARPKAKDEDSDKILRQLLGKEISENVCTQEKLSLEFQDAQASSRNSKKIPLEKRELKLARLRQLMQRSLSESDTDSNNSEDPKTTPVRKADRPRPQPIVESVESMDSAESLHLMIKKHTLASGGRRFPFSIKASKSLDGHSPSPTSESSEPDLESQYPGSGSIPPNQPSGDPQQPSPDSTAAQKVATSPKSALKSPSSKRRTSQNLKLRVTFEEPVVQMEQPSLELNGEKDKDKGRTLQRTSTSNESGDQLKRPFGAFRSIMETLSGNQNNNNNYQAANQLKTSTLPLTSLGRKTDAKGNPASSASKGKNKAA

HA-SIAH1 = target: T2, HA-SIAH1 (UniProt Q8IUQ4); assay: co-IP; HEK293 cells transfected with myc-synphilin-1 and HA-SIAH1, without or with His-CDK5, His-p25 or His-CDK5 dominant negative; SIAH1 immunoprecipitated with anti-HA, synphilin-1 detected with anti-myc
T2 sequence: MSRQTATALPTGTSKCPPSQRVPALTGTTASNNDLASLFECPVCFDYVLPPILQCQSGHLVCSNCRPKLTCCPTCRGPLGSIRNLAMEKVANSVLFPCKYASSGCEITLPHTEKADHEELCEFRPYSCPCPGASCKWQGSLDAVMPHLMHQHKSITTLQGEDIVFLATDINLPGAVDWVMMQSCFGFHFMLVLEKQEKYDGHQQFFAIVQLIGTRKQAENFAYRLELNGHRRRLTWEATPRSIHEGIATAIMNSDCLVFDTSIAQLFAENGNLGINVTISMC

myc-PINK1 = myc-PINK1 (UniProt Q9BXM7); assay: co-IP; HEK293 cells transfected with myc-PINK1 and HA-synphilin-1 (wild-type, S566E or S566A), without or with His-CDK5 and His-p25; PINK1 immunoprecipitated with anti-myc, synphilin-1 detected with anti-HA
myc-SIAH1 = target: T3, myc-SIAH1 (UniProt Q8IUQ4); assay: co-IP; HEK293 cells transfected with HA-synphilin-1 (wild-type or S566A) and myc-SIAH1; SIAH1 immunoprecipitated with anti-myc, synphilin-1 detected with anti-HA
T3 sequence: T2 sequence

binding [1]: binds
Molecule: myc-CDK5 (from UniProt Q00535 1-292) (enzyme)

binding [1]: no binding
Molecule: myc-FKBP12 (from UniProt P62942 1-108)

binding (HA-SIAH1): binds
B1: myc-synphilin-1 (protein, UniProt Q9Y6H5 1-919)
chain: T1 sequence

binding (myc-PINK1): binds
B2: HA-synphilin-1 S566E (protein, UniProt Q9Y6H5 1-919)
chain: T1 sequence with S566E

binding (myc-SIAH1): binds
binding (myc-PINK1): binds
B3: HA-synphilin-1 S566A (protein, UniProt Q9Y6H5 1-919)
chain: T1 sequence with S566A

binding (myc-SIAH1): binds
binding (myc-PINK1): binds
B4: HA-synphilin-1 (wild-type) (protein, UniProt Q9Y6H5 1-919)
chain: T1 sequence
